# Reference: PubChem BioAssay AID463173 (ICCB-Longwood Screening Facility, Harvard Medical School, 2010)
# In all, about 52,000 compounds went through this assay and about 1,700 (3.3%) were called active. Cut-off read from the data, not from the text of the source: active = survival mostly below about 52% (no sharp cut-off); inactive = mostly above about 56%. The list shows a part of the results.
# System: Wild type
# Assay: growth inhibition of S. aureus wild type versus tarO mutant, primary screen, teichoic acid synthesis inhibitors, RN4220, OD600 (AID 463173)
# Conditions: S. aureus RN4220 wild type/DeltatarO growth, OD600, 18 h, hits give low values, screened at 18.75 µg/mL (by protocol)
row,SMILES,survival
1,CC(C)OCc1cc(CN2CCN(c3cccc(C(F)(F)F)c3)CC2)c(O)c2ncccc12,inactive: 73%
2,Cc1ccc(CCNC(=O)CN(c2ccc(C)cc2)S(=O)(=O)N(C)C)cc1,inactive: 88%
3,CCSc1nnc2c(n1)OC(c1ccc(OC)c(OC)c1)N(C(C)=O)c1ccccc1-2 (stereo unspecified),inactive: 70%
4,CN(C)c1ccc(CNC(=O)C2CCN(Cc3cc4ccccc4n3Cc3ccccc3)CC2)cc1,inactive: 128%
5,CCCCCNC(=O)C1CCC(Cn2c(=O)c3sccc3n(CC(=O)NCc3cccc(OC)c3OC)c2=O)CC1 (stereo unspecified),inactive: 87%
6,CCCCC(=O)Nc1nnc(S(=O)(=O)N(C)Cc2ccccc2)s1,inactive: 86%
7,Cc1sc2ccccc2[n+]1CCCO,inactive: 103%
8,Cc1cccc(N(C)S(=O)(=O)c2cc3[nH]c(=O)c(=O)[nH]c3cc2C)c1,inactive: 78%
9,CCCCC1(C(=O)OC)NC(c2ccc(O)cc2)C2C(=O)N(c3ccccc3)C(=O)C21 (stereo unspecified),inactive: 99%
10,O=C1C(=O)N(C2CCN(C(=O)c3ccccc3F)CC2)CCN1Cc1ccc(F)cc1,inactive: 60%
11,Cc1cc(OCC(=O)N/N=C/c2ccc(I)o2)cc(C)c1Cl,inactive: 113%
12,Cc1ccc(-c2noc(CSc3nnc(C)n3-c3ccc(C)c(C)c3)n2)cc1,inactive: 86%
13,COc1ccc(Cl)cc1NC(=O)CSc1ccc2nnc(CCNS(=O)(=O)c3ccccc3)n2n1,inactive: 81%
14,COc1ccc(/C=C(\C#N)c2nc3ccccc3c(=O)[nH]2)cc1OC,inactive: 86%
15,CCOc1ccc(S(=O)(=O)Nc2ccc3oc4c(c3c2)CC(C)CC4)cc1 (stereo unspecified),inactive: 60%
16,CCS(=O)(=O)N1CCN(S(=O)(=O)c2ccc(Cl)cc2)CC1,inactive: 111%
17,COc1ccccc1CNC(=O)COCc1cc(-c2ccc3c(c2)OCO3)on1,inactive: 19%
18,COc1cccc(CNS(=O)(=O)c2c(C(=O)N3CCC(C)CC3)c(C)n(C)c2C)c1,inactive: 70%
19,COc1ccc(C(=O)C2CCN(CC(=O)NCc3ccc(F)cc3)CC2)cc1,inactive: 104%
20,CC(C)CN(CC(C)C)CC(O)Cn1cc(/C=C/C(=O)c2ccccc2)c2ccccc21 (stereo unspecified),inactive: 40%
21,O=C(COc1ccc(F)cc1)OCc1cc(=O)n2nc(-c3cccs3)sc2n1,inactive: 64%
22,COc1cc(NS(=O)(=O)c2c(C)nc3sc(C)c(C)n3c2=O)cc(OC)c1,inactive: 90%
23,CCc1ccc(NC(=O)C2=CC(c3cccs3)=NS(=O)(=O)N2C)cc1,inactive: 73%

row,SMILES,survival
1,CCOc1ccccc1CNC(=O)Cn1nc(N2CCN(c3ccccc3)CC2)ccc1=O,inactive: 82%
2,COc1ccc(C)c2sc(NC(=O)c3ccc(S(=O)(=O)N4CCCC4)cc3)nc12,inactive: 78%
3,COc1ccc(C(=O)NCc2ccc3c(c2)CCN3C(=O)c2ccc(F)cc2)cc1,inactive: 51%
4,O=C(NCc1ccc(Cl)cc1)NC1COc2ccccc2C1 (stereo unspecified),inactive: 79%
5,CCOc1ccc(S(=O)(=O)Nc2cccc(-c3ccc(N4CCC(C)CC4)nn3)c2)cc1,inactive: 82%
6,O=CN1CCN(C(=O)c2ccc(F)cc2)CC1,inactive: 109%
7,CC1CCN(S(=O)(=O)c2ccc3c(c2)N(CC(=O)NCC(C)c2ccccc2)C(=O)CO3)CC1 (stereo unspecified),inactive: 80%
8,Cc1c(C(=O)OCc2ccccc2)[nH]c2c1C(=O)CC(c1ccc(Cl)cc1)C2 (stereo unspecified),inactive: 99%
9,Cn1nnnc1SCCCNCc1cccc(OCc2ccccc2)c1,inactive: 94%
10,O=C(CSc1ncccc1C(=O)Oc1ccccc1Cl)Nc1ccccc1Cl,inactive: 80%
11,CN(C)c1ccc(CNC(=O)C2COc3ccccc3C2)cc1 (stereo unspecified),active: 0%
12,CCOc1cc(S(=O)(=O)N(C)C2CCCCC2)c(OCC)cc1-n1cnnn1,inactive: 98%
13,O=C(NCc1ccco1)c1ccc(Cn2c(SCc3ccccc3F)nc3cccnc32)cc1,inactive: 74%
14,O=c1cc2[nH][nH]c(=S)n2c(=O)[nH]1,inactive: 107%
15,COc1ccc(CCNC(=O)Cn2cc(S(=O)(=O)Cc3ccc(F)cc3)c3ccccc32)cc1OC,inactive: 83%
16,CCOc1ccccc1NC(=O)C1CCCN1S(=O)(=O)c1ccc2nc(-c3ccccc3)[nH]c2c1 (stereo unspecified),inactive: 55%
17,O=C(NC1CCCCC1)c1ccc2c(c1)N(Cc1ccccc1Cl)C(=O)c1ccccc1S2,inactive: 125%
18,S=c1sc2ccccc2n1CN1CCOCC1,inactive: 87%
19,Cc1ccc(-c2cc(C(F)(F)F)n3ncc(-c4ccccc4)c3n2)cc1,inactive: 62%
20,CCOc1ccc(C(=O)c2oc3ccccc3c2NC(=O)c2cc(-c3ccc(C)cc3)on2)cc1,inactive: 90%
21,O=C(CN1C(=O)CSC1=O)N1CCCCC1,inactive: 97%
22,O=C(Nc1cccc(F)c1)c1oc2ccccc2c1NC(=O)C12CC3CC(CC(C3)C1)C2,inactive: 86%
23,O=C(CSc1ncc(-c2ccccc2)n1Cc1ccco1)Nc1cccc(I)c1,inactive: 102%

row,SMILES,survival
1,CCCCCn1cc2c(c1-c1ccccc1Br)c(=O)n(C)c(=O)n2C,inactive: 82%
2,O=S(=O)(c1ccccc1)c1nnn2c1nc(NCc1ccccc1)c1cc(Cl)ccc12,inactive: 85%
3,CC(C)c1ccc(NC(=O)CCS(=O)(=O)c2ccc3c(c2)CC(=O)N3C)cc1,inactive: 81%
4,Cc1nc2nc(C)c(CCC(=O)NCc3ccccc3)c(C)n2n1,inactive: 90%
5,CCOc1ccc2ncc3c(-c4cccc(OC)c4)nn(-c4ccccc4)c3c2c1,inactive: 125%
6,Cc1ccc2occ(CC(=O)Nc3ccc(S(=O)(=O)N4CCC(C)CC4)cc3)c2c1,inactive: 72%
7,CCC(C)NC(=O)Cn1c(=O)n(Cc2ccc(C(=O)NCc3ccc(C)cc3)cc2)c(=O)c2ccccc21 (stereo unspecified),inactive: 70%
8,COc1cccc(Cc2nc3ccccc3nc2SCC(=O)Nc2cc(OC)ccc2OC)c1,inactive: 60%
9,CCOc1ccccc1CNCCSc1nnnn1C,inactive: 74%
10,CCOCCn1ccc2c(OCC(=O)Nc3cccc(F)c3)cccc2c1=O,inactive: 81%
11,CCOc1cc(-c2ccc(OC(=O)c3ccccc3)c(OC)c2)cc(=O)c2c(C)oc(C)c12,inactive: 96%
12,CCN(CCCNC(=O)CN1N=C(c2ccccc2)CCC1=O)c1ccccc1,active: -6%
13,COc1ccc2ccccc2c1CN1CCN(C(=O)c2ccccc2F)CC1,inactive: 106%
14,O=c1c2sc3ccccc3c2n(Cc2ccccc2)c(=O)n1CCc1ccccc1,inactive: 76%
15,COc1ccc(C)cc1Nc1ncnc2c1c(-c1ccccc1)cn2-c1ccc(C)cc1,inactive: 74%
16,CCCCNc1ncnc2c1nnn2Cc1ccccc1Cl,inactive: 111%
17,O=C(NCC1CCCO1)c1ccc(Br)cc1 (stereo unspecified),inactive: 133%
18,COc1ccc(OC)c2sc(N3CCN(C(=O)C4COc5ccccc5O4)CC3)nc12 (stereo unspecified),inactive: 78%
19,COc1ccc(S(=O)(=O)N2CCC(C(=O)Nc3cc(C(F)(F)F)ccc3Cl)CC2)cc1,inactive: 126%
20,CCCOc1ccc(-c2cc(C(F)(F)F)c(C#N)c(SCCC(=O)O)n2)cc1,inactive: 58%
21,COc1ccc(C2CC3(CC(C)(C)NC(=O)N3)Oc3cc(O)ccc32)cc1 (stereo unspecified),inactive: 113%
22,CCCN(CCC)C(=O)Cn1c(=O)n(CCCCCC(=O)NCc2ccccc2Cl)c(=O)c2sccc21,inactive: 91%
23,Cc1ccc(S(=O)(=O)C(CNC(=O)COc2ccccc2)c2ccco2)cc1 (stereo unspecified),inactive: 124%

row,SMILES,survival
1,CC(C)CCNC(=O)C(Cc1ccccc1)NS(=O)(=O)c1ccc2c(c1)c(=O)n(C)c(=O)n2C (stereo unspecified),inactive: 77%
2,Cc1cc(C)n(-c2nc3cc(Cl)ccc3nc2N2CCN(c3ccccc3F)CC2)n1,inactive: 68%
3,CCCN1c2cccc3cccc(c23)S1(=O)=O,inactive: 103%
4,CS(=O)(=O)N1CCc2cc(C(=O)Nc3ccc(C(F)(F)F)cc3)ccc21,inactive: 85%
5,O=C(Nc1ccccc1C(=O)OCc1cc(=O)n2nc(C3CC3)sc2n1)c1cccc(F)c1,inactive: 69%
6,Cc1ccc(CNC(=O)CSc2nc3n[nH]c(C)c3c(=N)n2-c2ccccc2Cl)cc1,inactive: 83%
7,O=C(O)c1csc(Br)c1Br,inactive: 107%
8,O=C(Nc1ccc(F)c(Cl)c1)N1CCC(CN2CCOCC2)CC1,inactive: 80%
9,COc1ccccc1CNC(=O)CSc1nnc(C)c2c(C)n(-c3ccccc3)nc12,inactive: 71%
10,CCOC(=O)c1ccc(NC(=O)C(CC)Sc2nc(N)cc(N)n2)cc1 (stereo unspecified),inactive: 133%
11,COCCNC(=O)c1ccc(-c2nc(CS(=O)(=O)c3ccccc3)c(C)o2)cc1,inactive: 123%
12,Cc1nc2sccn2c(=O)c1S(=O)(=O)Nc1cc(C(F)(F)F)ccc1Cl,inactive: 78%
13,Cc1ccccc1OCCCCn1nnc2sc3c(c2c1=O)CCC(C)C3 (stereo unspecified),inactive: 87%
14,CCOCCCn1c(SCC(=O)Nc2ccccc2Cl)nc2c(oc3ccccc32)c1=O,inactive: 85%
15,Cc1ccc(CCNC(=O)c2ccc3c(c2)nc2n3CCOC2)cc1,inactive: 82%
16,OCCN(CCO)c1nc2ccccc2[nH]1,inactive: 110%
17,CC(=O)N1CCCc2cc(S(=O)(=O)N3CCCC(C(=O)NCc4ccc(C)cc4)C3)ccc21 (stereo unspecified),inactive: 77%
18,O=C(NN=C1CCCCC1)C1CC1c1ccccc1 (stereo unspecified),inactive: 114%
19,CCOc1ccc(NCc2nc3ccccc3n2CCOc2ccc(C)cc2)cc1,active: -20%
20,O=C(CSc1nc2c(c(=O)[nH]1)CN(Cc1ccc3c(c1)OCO3)CC2)Nc1ccccc1Cl,inactive: 81%
21,CCc1ccc(-n2nc3ccc(NC(=O)COc4ccc(OC)cc4)cc3n2)cc1,inactive: 95%
22,COc1cccc(Cn2c(CNS(=O)(=O)c3ccc(Cl)s3)nc3cccnc32)c1,inactive: 85%
